# ± gives the standard deviation of the averaged measurements. Some of the results follow.
# System: PfAP2-LT AP2 domain (GST-tagged)
# Assay: gcPBM binding intensity (ln(normalized median fluorescence intensity)); higher = stronger DNA binding
# Summary of the method: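 For binding intensity, the highest Masliner-normalised natural-log median intensity across replicate spots of either probe orientation was taken. Protein bound to the array was stained with Alexa488 anti-GST antibody and scanned at 488 nm. The protein, GST-tagged P. falciparum DNA-binding domains from E. coli at about 25 μg on average, had been applied for 1 h to an Agilent 4 × 180k array of primer-extended double-stranded 36-bp intergenic genomic probes and negative controls.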
row,Sequence,gcPBM binding intensity (ln)
1,GATATGATTAACTTATGTTATTCTTGATGGTTTCTT [GTGCAC_negctrl_site411],8.9 ± 0.48
2,TATCACAAAATATACTGTACATACAGGCAGTAATAT [XGTACX_site2487],8.85 ± 0.4
3,TTATAAAACCATGTCATCAACATAGGCACAAAAATG [CACACA_negctrl_site1160],8.72 ± 0.35
4,ATATGTACATATCTCATGCACTTAACAAAAAAAAAG [GTGCAC_site9898],8.7 ± 0.45
5,TATGTATAGATATATACACACTTCTGTGATACGAAA [CACACA_site7003],8.84 ± 0.35
6,TAAAGAGTCATGTGGTGTACCTGCTTCACCACATAT [XGTACX_site1288],8.91 ± 0.3
7,TATATATTCATAAAGTGTACATGTTTATATATATAT [XGTACX_site7585],8.83 ± 0.4
8,TTATTTTTAATATCGGTGCAACAAAAAGGAAAAGAT [GTGCAC_site9482],8.85 ± 0.37
9,TATTATATGTAGTTGAGTACATATAAATACATATAT [XGTACX_site7933],8.79 ± 0.4
10,AAATAGTTAAAAAGGCGTACACATAAATAAATAAAT [XGTACX_site2096],9.2 ± 0.52
11,AATCTAATATAATGCACACATAAAAAAAAATCAAAC [CACACA_site3633],9.14 ± 0.45
12,GTATATATATATATATATATAATAGTAACTTTTACT [CACACA_negctrl_site608],9.11 ± 0.26
13,TGTAGTCTGGAGAAAAGTACATAGTATCTGGTAACA [XGTACX_site4940],8.72 ± 0.57
14,TTTTAATTTTAAAAATGTACTTTTATTATTTTTAAT [XGTACX_site8300],8.34 ± 0.39
15,TAAAAATTAAAATGTTGTACAATGATAAAATATTAT [XGTACX_site7874],8.75 ± 0.44
16,TATTTGATAAAAAAAAGTACTAGAATTTCGCTTTTG [XGTACX_site7754],8.37 ± 0.39
17,ATTTATTTATATACAAGTACATAAAAAATTAACTTA [XGTACX_site6170],8.3 ± 0.43
18,AAATTATAAAATAACTGTACCAATCCTTTTTTTTTA [XGTACX_site2229],8.33 ± 0.48
19,TAAATTGAAATATATTGTACATTATCAACTAAGGGA [XGTACX_site1635],8.55 ± 0.4
20,CTCAACATATACGTAACACACATATAAATATAAATA [CACACA_site7749],8.99 ± 0.44
21,CATATATACCTATATACACACATATAGATTTATATA [CACACA_site6451],8.91 ± 0.43
22,TTATTCTACATATATGCATGTGTATGATCTGTTTAT [TGCATGCA_site782],9.09 ± 0.38

row,Sequence,gcPBM binding intensity (ln)
1,AAAATAAAAAAAATGTAAAAGGTTAAAGTGAAATAT [CACACA_negctrl_site350],8.92 ± 0.42
2,ATATAAATGATATGTACACACATTTATATATATAAA [CACACA_site3475],9.09 ± 0.47
3,TGATATTATCTCTTCACACACTCACATACAGACAAA [CACACA_site1246],8.99 ± 0.21
4,AAAAAAAAAATATTTGAACACACGAGGATATATAAA [CACACA_site139],8.76 ± 0.55
5,TATATTTAATTATTTTGTACTCATATAAAGATGATG [XGTACX_site5488],8.42 ± 0.51
6,TACAGACATACATACACACATACATACAGACATACA [CACACA_site1941],9.43 ± 0.38
7,CACACGCACGAACACACACACACACGCACGCACATA [CACACA_site6305],10.4 ± 0.13
8,TACATATTTACTATCACACACACGATATAAATAAAT [CACACA_site6701],9.35 ± 0.29
9,AATAAAATTTGCGATGCACACAGAATAGCTAATATG [CACACA_site8983],9.2 ± 0.33
10,TTATTTTACTTTTATGCAACTAAAAATATTGCTATA [XGTACX_negctrl_site277],8.56 ± 0.5
11,ATATTCAATTCATACACACACAATTTAAGAATGATA [CACACA_site3883],9.22 ± 0.41
12,CATATAGATTTGTTCACACACACACTAAAAAAAAAA [CACACA_site7212],9.37 ± 0.44
13,ACAAATGTGAGAAAGACACACATATAATAAAAAACA [CACACA_site1156],9.23 ± 0.44
14,ATACATATATAATTATGTACGTATATTTTATATAAC [XGTACX_site4292],8.91 ± 0.41
15,ATGAATAAAAAAGGTGGTACATATATATATATATAT [XGTACX_site7893],9.82 ± 0.11
16,TGTCTTGTAAATTATTGTACTATTTAAAGTATAAAA [XGTACX_site7863],8.23 ± 0.33
17,AAAATAATATAAATAATATAAGTGAGCATATATATA [TGCATGCA_negctrl_site527],8.76 ± 0.45
18,AAAAAGGTTATTGGTACACACATATGTATATATATA [CACACA_site552],9.12 ± 0.45
19,ATATGTGTGTAGTGTTCAATTATATTGATGTGAAGG [TGCATGCA_negctrl_site462],9.31 ± 0.45
20,GAACCGTGCAAATGTTGTACACTTTAAAAATATTCT [XGTACX_site4488],8.79 ± 0.49
21,ATAATATATATATTAACACACATCCTTTTATGTATA [CACACA_site1203],8.91 ± 0.35
22,TTATAATAATTTTATGCACACAGAAAAATACAAGGT [CACACA_site9169],9.2 ± 0.32

row,Sequence,gcPBM binding intensity (ln)
1,TAGGAGCCTAGACACACACACAAAAAAAAAAAAAAA [CACACA_site6911],9.34 ± 0.64
2,TACATATAGAAACACACACACATATATATATATATA [CACACA_site1300],10.1 ± 0.35
3,AAAACGAAAATTTGGAAACCAAAGGAAAAACATAAT [GTGCAC_negctrl_site709],9.1 ± 0.47
4,TATATAAGAATTTTTACACACATGAAAATGTAGATA [CACACA_site3735],8.74 ± 0.37
5,TATACATACTCACCCACACACAAAAAAAAAAAAAAA [CACACA_site862],9.28 ± 0.47
6,TATTTAATGTGATACTTATATTATTTTATGATTAAA [GTGCAC_negctrl_site25],8.38 ± 0.32
7,AGCTCTTGTCATTTTGCACACACACCGGTATAGGTT [CACACA_site5654],9.93 ± 0.36
8,TATATATACAGACACATACACACAAATAAAAAAACA [CACACA_site3413],9.39 ± 0.35
9,AGAAGGTAAAAACACACACACACATACAAAAAAAAA [CACACA_site3767],10 ± 0.5
10,ATATTTAAAAAAGAGTGTACTCATCTCTTTTAAAAA [XGTACX_site1160],8.29 ± 0.4
11,GTGTATTTATGTTATACACACAAAAATATTTTGTAT [CACACA_site4305],9.01 ± 0.33
12,AATGTAGGTTTATTTACACACAAATATAGATATATA [CACACA_site6825],8.96 ± 0.4
13,ATGTTGCTCATATGAGTGCACGTTTCATTTCAGTTT [GTGCAC_site9865],9.01 ± 0.45
14,CTATTTCGTATATATAGTACATATTATAACATACTA [XGTACX_site978],8.75 ± 0.42
15,AATTTATATAATTTTGTGCACAATATTCATGTATAT,9.12 ± 0.46
16,ATTTTATTAATTTGGTGTACTTAATTTATATTTTTC [XGTACX_site4947],8.83 ± 0.47
17,AAAAAAAAAAAATAATAAATAAATAAAAATAAATGA [CACACA_negctrl_site1623],8.47 ± 0.6
18,CCTCCATTAGATACTTGTACATAAAAGTTTTGATTG [XGTACX_site7428],8.61 ± 0.42
19,AATCATAAAATCATATGTACACATTTTTCCTATGAT [XGTACX_site8799],8.96 ± 0.33
20,AGACTTTGTACAAACACACACATGAACACAATATTA [CACACA_site1360],9.44 ± 0.42
21,TATTTCACAAACCTTACATGCGGTTTATTTATATAT [TGCATGCA_site123],9.06 ± 0.45
22,TTTATTAAATATATATGTACATATCAAAATGTATAA [XGTACX_site3181],8.46 ± 0.43

row,Sequence,gcPBM binding intensity (ln)
1,TTTTTTTTCTATTGAGCACACATATCACGATTAGTA [CACACA_site7992],8.86 ± 0.48
2,TTTTTGAATGTTTGCACACAAATCTCATAATTTTAG [CACACA_site357],8.88 ± 0.4
3,TAGTTACATAAAATATGTACGTATAATTTTTTTATT [XGTACX_site3847],8.56 ± 0.42
4,ATAATTTATATCATTACACACATTTTTTATATTTTT [CACACA_site3450],8.98 ± 0.38
5,TTTAGTTCATACTATGCACACTACGTATATTTTTAA [CACACA_site5484],8.95 ± 0.39
6,TATTTTCTCTTAAAAAGTACTCATATATACATTTAT [XGTACX_site7748],8.57 ± 0.53
7,ATAACATACATAACAACACACAATATTTATAGGTAT [CACACA_site6243],9.35 ± 0.38
8,CGTTATATATTTTATAGTACTTTTTGTAAATTTTTT [XGTACX_site7682],8.62 ± 0.43
9,ATTAATAAGAAGAAAAGTACAAAACAAAAAGATATA [XGTACX_site7473],8.87 ± 0.51
10,TTAATTTATGTTAATGGTACGTAAATGCATTTATTT [XGTACX_site3002],8.81 ± 0.41
11,ATTTAACCAAATAATATATTTAAAAAATAGTCACAT [CACACA_negctrl_site274],8.61 ± 0.47
12,TATAATATATGAAAAAGTACAAATATTTCGATGGTC [XGTACX_site129],8.82 ± 0.38
13,TTTTATAATTTGAGAACATGCAACATAAATATAAAG [TGCATGCA_site965],8.48 ± 0.45
14,AACATTTTAAAATAATGTACTTGAAAAAAAAACTAC [XGTACX_site8894],8.65 ± 0.51
15,TGTTCTAATATTTGTTGTACGTTTACGTTTCTCTCT [XGTACX_site18],8.93 ± 0.44
16,TATTTAAGAGTATGAACACACATCATACCCATATAA [CACACA_site5911],8.81 ± 0.43
17,CATATAAATAAATATACATGCATACATACATATATA [TGCATGCA_site713],8.79 ± 0.38
18,AACATCTTATCATCATGTACGAAGCAGTTTTATAAG [XGTACX_site2490],8.73 ± 0.32
19,TATAATAAATATACTGGTACACAAATATATATATTT [XGTACX_site7741],8.78 ± 0.47
20,ATATTATATTTACATAGTACACTATATGTATATATA [XGTACX_site2101],8.88 ± 0.39
21,TGTAATTTTTTACGTTGTACATATATTAACAATATA [XGTACX_site3991],8.53 ± 0.39
22,AAAAAAAAAAAAAAAAAAACTAATATAATAAAAATA [TGCATGCA_negctrl_site150],8.38 ± 0.39

# Reference: the supplement of paper PMC11417369
